According to the supplement of paper PMC11417369:
Some of the results follow.

The sequences below were run on PfAP2-HC AP2 domain (GST-tagged) (assay: gcPBM binding intensity (ln(normalized median fluorescence intensity)); higher = stronger DNA binding).
Method in brief: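 DNA-binding domains from P. falciparum, fused to GST and produced in E. coli, were put on an Agilent 4 × 180k double-stranded probe array for 1 h in 1× PBS holding 1% milk, 0.2 mg/ml BSA, 0.5% salmon testes DNA and 0.03% Triton X-100. Probes were primer-extended, 36 bp long and drawn from intergenic genomic regions, with negative controls included. After Alexa488 anti-GST antibody detection and a 488 nm scan, binding intensity was set as the highest Masliner-normalised natural-log median intensity across replicate spots of either probe orientation.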
In the case of “TATATTAAGTATAAGACACACATATAGTAATAGAAA [CACACA_site5176]”, the “gcPBM binding intensity (ln)” value is reported as 10. With “TTATAAAAAAAAATAACACACAGACATAAGAATAAA [CACACA_site9383]” the “gcPBM binding intensity (ln)” value was 10.2. For “AAGTGTCAAAGTTACACACACAAACTTGTCATTTTT [CACACA_site837]”, the “gcPBM binding intensity (ln)” value was 10.2. With “ATATAACTTTTCTTAACACACAAAAAACAAAAATAA [CACACA_site2380]” the “gcPBM binding intensity (ln)” value was 9.71. For “GGTATACATATTAAATGTACATATTTTAACAATAAG [XGTACX_site4868]”, the “gcPBM binding intensity (ln)” value was 9.68. For “GACATATAAATATACACACATACGTAAGTATATTAA [CACACA_site1790]”, the “gcPBM binding intensity (ln)” value was 9.82. In the case of “TTTTTATGGATATTTATATTATATTATGATTAAAAA [TGCATGCA_negctrl_site204]”, the “gcPBM binding intensity (ln)” value is reported as 9.3. “TGTATAATATATATATGTACTTATGTATAATATTAT [XGTACX_site4328]” was tested, and the “gcPBM binding intensity (ln)” value was 9.6. With “AAGATATCTAAGGAAATTAAACTACCAAAATATATA [TGCATGCA_negctrl_site338]” the “gcPBM binding intensity (ln)” value was 9.59. With “TGCATAAAAGTAAAAACATGCATGCCGTGGTATCTT [TGCATGCA_site664]” the “gcPBM binding intensity (ln)” value was 9.64. In the case of “AATATATTTATAAGCACACACTAATAAACACAGACA [CACACA_site4377]”, the “gcPBM binding intensity (ln)” value is reported as 10.5. “AAATATATATATATATATATATATGTGTGTGTATAT [GTGCAC_negctrl_site1]” was tested, and the “gcPBM binding intensity (ln)” value was 10.1. In the case of “GTACATAATTATTATGCACACATATTTTTATGTATT [CACACA_site8132]”, the “gcPBM binding intensity (ln)” value is reported as 9.9. In the case of “AATAATACAAAAGTTCAACAAAAAAAAAAAAAAAAT [CACACA_negctrl_site952]”, the “gcPBM binding intensity (ln)” value is reported as 9.75. In the case of “CTTTATAATATTTGTTGTACACAAATATAACATATT [XGTACX_site709]”, the “gcPBM binding intensity (ln)” value is reported as 9.72. For “ATTTAAATATATTATTGTACATATACCTAATAAGAA [XGTACX_site6655]”, the “gcPBM binding intensity (ln)” value was 9.55. “ACTCCTATATAAATGAACCATATTCATAATATATAT [CACACA_negctrl_site1636]” was tested, and the “gcPBM binding intensity (ln)” value was 9.64. For “AAATGAAAGAATTAAAGTACATTTATATAATTTTAA [XGTACX_site3540]”, the “gcPBM binding intensity (ln)” value was 9.54. In the case of “AAGAGAAAAACATACACACACAACAAAATATGTATA [CACACA_site2719]”, the “gcPBM binding intensity (ln)” value is reported as 10.4. For “TATCCCTTAGAATACACACCCATATGAGTGTGAACT [CACACA_site7398]”, the “gcPBM binding intensity (ln)” value was 9.63. With “TGTTTTGTTTTTTGGGGTACATGTTTTGTATTATAT [XGTACX_site7997]” the “gcPBM binding intensity (ln)” value was 9.92. With “ATATCTTATGTTATCACACACACACGCACAAAACAG [CACACA_site6800]” the “gcPBM binding intensity (ln)” value was 10.3. With “ATTTTTTTTATTTTTTATATAATTTTTTTATATTAT [CACACA_negctrl_site1521]” the “gcPBM binding intensity (ln)” value was 9.77. For “TGTATTTATAAACATGCACACGTGGTTGTATTTATA [CACACA_site5762]”, the “gcPBM binding intensity (ln)” value was 9.77. With “ATTTGTTTACCTAAAAGTACAAATTTTTTATGTATA [XGTACX_site7689]” the “gcPBM binding intensity (ln)” value was 9.55. For “ATATATATATATATATGTACATATATATATGTATAT [XGTACX_site3959]”, the “gcPBM binding intensity (ln)” value was 9.72. For “ATATTATTTTAAAGTACACACATATATTAATATATA [CACACA_site2315]”, the “gcPBM binding intensity (ln)” value was 9.76. With “TATACATACAGACCCACACACAAAAAAAAAAAAAAA [CACACA_site6536]” the “gcPBM binding intensity (ln)” value was 10.1. “AAGGCAAGCACTTAAACATGCATATAATAATATCAT [TGCATGCA_site698]” was tested, and the “gcPBM binding intensity (ln)” value was 9.53. For “ATAATATATATATATGCATGTACATATTTATCTTTA [TGCATGCA_site32]”, the “gcPBM binding intensity (ln)” value was 9.73. In the case of “ATGTATTAAAAAAATTGTACTATAAAATGTAACCGC [XGTACX_site8083]”, the “gcPBM binding intensity (ln)” value is reported as 9.79. With “AAAAAAAAAAAAAACATACACACAAATATATACATA [CACACA_site4010]” the “gcPBM binding intensity (ln)” value was 10. “GAATTTTTTTAATGTTGTACTTTTTTTTTTTTTTCT [XGTACX_site648]” was tested, and the “gcPBM binding intensity (ln)” value was 9.49. For “ACATATATATATATATATATATATATATTACATTTA [CACACA_negctrl_site627]”, the “gcPBM binding intensity (ln)” value was 9.66. For “ACATATTTTATTTTTTGTACACATATATTATTTTTT [XGTACX_site6528]”, the “gcPBM binding intensity (ln)” value was 10.2. In the case of “TTTTTGTTAAACAGGGTGCTAATCTGAATTAATATT [GTGCAC_site9908]”, the “gcPBM binding intensity (ln)” value is reported as 9.39. “TTTCAAAAGTAATACTGTACTTATTTTTATGATTTA [XGTACX_site4184]” was tested, and the “gcPBM binding intensity (ln)” value was 9.55. With “TTATACATAAATTTTGTACACACAAAAAAAAAAAAG [CACACA_site8374]” the “gcPBM binding intensity (ln)” value was 9.86. For “ATATTATTTATAGGGTGTACCTTATTATTATAAGAA [XGTACX_site7148]”, the “gcPBM binding intensity (ln)” value was 9.34. With “TAGAAAAACATTACGTGTACCAAACATCCTAGCAAC [XGTACX_site4888]” the “gcPBM binding intensity (ln)” value was 10.2. In the case of “TATAATATTATACATAGTACACATCACACATCGCAA [XGTACX_site4650]”, the “gcPBM binding intensity (ln)” value is reported as 9.99. In the case of “TATATACTTTTATGTACACACCTATAATATGGGTGA [CACACA_site5044]”, the “gcPBM binding intensity (ln)” value is reported as 9.73. “TTTGGTTATATTTAAAAAAGACTAATGAAAATTAAA [XGTACX_negctrl_site526]” was tested, and the “gcPBM binding intensity (ln)” value was 9.35. In the case of “AAAAAAAAAAAAAATACACACATAAAATAAATAACA [CACACA_site439]”, the “gcPBM binding intensity (ln)” value is reported as 9.91. “AATTTACAAATATAATGTACATAATTATATATATAT [XGTACX_site278]” was tested, and the “gcPBM binding intensity (ln)” value was 9.64. In the case of “AATAGTAAAAATCACTGTACGTTTATTTTTAAAATG [XGTACX_site1035]”, the “gcPBM binding intensity (ln)” value is reported as 9.75. With “CCATATACAACCATACGTACATATATATATATATAT [XGTACX_site8193]” the “gcPBM binding intensity (ln)” value was 9.79. With “CATACCATACATAAAACACACAAAATTTACAGAATA [CACACA_site7451]” the “gcPBM binding intensity (ln)” value was 10.2. In the case of “ATAATATTTTGAAACGGTACACTTTTAAAATACACT [XGTACX_site4423]”, the “gcPBM binding intensity (ln)” value is reported as 9.62. In the case of “AAAATAAGGAAAAAAAAAAAAAAAAAAAAAAAAAAG [CACACA_negctrl_site1291]”, the “gcPBM binding intensity (ln)” value is reported as 9.58. “AACACTACATAAAACTGTACAATAGTATTTTATTAT [XGTACX_site996]” was tested, and the “gcPBM binding intensity (ln)” value was 9.74. With “TTTTTTTTTATATTTAGTACATATATATTATTATAT [XGTACX_site3334]” the “gcPBM binding intensity (ln)” value was 9.76. “ACAAGATGATGGAAATGTACATAAAAAGAATCATAT [XGTACX_site8682]” was tested, and the “gcPBM binding intensity (ln)” value was 9.96. “CTTAGTGTATTTGAATGTACGCATAAATATAATTAT [XGTACX_site2830]” was tested, and the “gcPBM binding intensity (ln)” value was 9.55. For “ATTATTAAAATGATATGTACGCACATAATATACATA [XGTACX_site3236]”, the “gcPBM binding intensity (ln)” value was 9.7. With “AAAAAAAAAAAACATACACACAAATATGTACATACA [CACACA_site7807]” the “gcPBM binding intensity (ln)” value was 9.95.
